The campaign covered roughly 45,000 compounds. About 200 (0.44%) were called active. About 7% were inconclusive and are not listed. Calls come from the whole dose curve; as a rule, active = well fitted activation curve with a large enough effect; inconclusive = small, poorly fitted or top-dose-only effect; inactive = no such curve, though single readings can be large or run the other way. The list shows a part of the results.
Test: qHTS of TDP-43 Inhibitors: NCGC Sytravon Library Screen; note: 0% is about no effect; nearly all actives have a fitted effect of over 55% in size
Settings: yeast TDP-43 toxicity rescue, BacTiter-Glo growth, 24 h; series mostly up to 46.1 µM; growth rescue (activation): at the top concentration
Outline: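 TDP-43-expressing yeast, pregrown in raffinose, seeded at OD600 0.02 in galactose medium with compound for 24 hr at 30 deg C. Growth read by BacTiter-Glo luminescence, so rescue of toxicity appears as activation.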

Q: For `CNC(=S)N(Cc1cccs1)Cc1cc2cc(OC)c(OC)cc2[nH]c1=O`, which “growth rescue (activation)” value is on record?
A: Its value is inactive: -22.6%.

Q: Which “growth rescue (activation)” value does the source give for `O=C1N=C(N2CCCCC2)S/C1=C/C1=Cc2ccccc2OC1` here?
A: Its value is inactive: 27.3%.

Q: Which “growth rescue (activation)” value does the source give for `Cc1ccc(NC(=O)c2ccc(=O)[nH]c2)cc1S(=O)(=O)N1CCCCCC1` here?
A: Its value is inactive: 12.1%.

Q: Which “growth rescue (activation)” value does the source give for `COc1cc(NC(=O)CSc2nc3ccccc3cc2C)c(C(=O)O)cc1OC` here?
A: The value was inactive: 24.3%.

Q: With `Cc1c(C(=O)N2CCC2(C)C(=O)O)oc2ccccc12` (stereo not drawn) as the compound, how does the “growth rescue (activation)” value read?
A: Its value is inactive: 4.07%.

Q: With `C/C(=N\NC(=O)CSCc1ccc(Cl)cc1)c1ccc(NC(=O)c2ccccc2)cc1` as the compound, how does the “growth rescue (activation)” value read?
A: Its value is inactive: -1.21%.

Q: With `NS(=O)(=O)c1cc(C(=O)N2CCNC(=O)C2)ccc1Cl` as the compound, how does the “growth rescue (activation)” value read?
A: Its value is inactive: 14.9%.

Q: Which “growth rescue (activation)” value does the source give for `OC(c1cccnc1)c1nc(/C=C/c2ccc(C(F)(F)F)cc2)cs1` (stereo not drawn) here?
A: The value was inactive: -0.684%.

Q: With `CCc1ccc(CNC(=O)c2ccc(OC3CCN(C(=O)COC)CC3)cc2)nc1` as the compound, how does the “growth rescue (activation)” value read?
A: Its value is inactive: 4.85%.

Q: Which “growth rescue (activation)” value does the source give for `C=CCN1C(=O)C(O)(CC(=O)c2ccccn2)c2ccccc21` (stereo not drawn) here?
A: Its value is inactive: 2.18%.

Q: With `Cn1c(=O)c(=O)n(C)c2cc(S(=O)(=O)CCC(=O)Nc3cccc(C(F)(F)F)c3)ccc21` as the compound, how does the “growth rescue (activation)” value read?
A: The value was inactive: -7.07%.

Q: With `CC(=O)Nc1ccc(NS(=O)(=O)c2ccccc2)c2ccccc12` as the compound, how does the “growth rescue (activation)” value read?
A: Its value is inactive: -11.2%.

Q: Which “growth rescue (activation)” value does the source give for `COc1ccccc1NC(=O)Cc1nnc(SCC(=O)Nc2nccs2)n1C` here?
A: The value was inactive: -5.47%.

Q: With `Cc1ccc(C(=O)n2nnc3ccccc32)cc1[N+](=O)[O-]` as the compound, how does the “growth rescue (activation)” value read?
A: The value was inactive: 10.2%.

Q: With `CCCCN(CC)C(=O)c1ccccc1Oc1ccccc1` as the compound, how does the “growth rescue (activation)” value read?
A: The value was inactive: 6.82%.

Q: For `CN(CC(=O)NC1CCCC1)S(=O)(=O)c1cccc(Cl)c1`, which “growth rescue (activation)” value is on record?
A: Its value is inactive: 27.1%.

Q: Which “growth rescue (activation)” value does the source give for `CCCc1cc(=O)[nH]c(Nc2ccc(Cl)cc2)n1` here?
A: Its value is inactive: -2.2%.

Q: With `Cc1cccc(OCC(=O)Nc2ccc3c(c2)nc2n3CCOC2)c1` as the compound, how does the “growth rescue (activation)” value read?
A: Its value is inactive: -4.04%.

Q: For `CC(C)[C@H](NS(=O)(=O)c1ccccc1)C(=O)OCC(=O)Nc1ccc2c(c1)OCO2`, which “growth rescue (activation)” value is on record?
A: The value was inactive: 4.48%.

Q: With `Cc1ccccc1CN1C(=O)CS/C1=N/N=C/c1ccco1` as the compound, how does the “growth rescue (activation)” value read?
A: The value was inactive: -7.38%.

Q: Which “growth rescue (activation)” value does the source give for `Cc1cc(Cl)ccc1C(=O)C1CCCN(C(=O)CCN2CCCO2)C1` (stereo not drawn) here?
A: The value was inactive: -1.94%.

Q: With `Cc1nnc(NC(=O)CSc2nnc3c(n2)[nH]c2ccccc23)s1` as the compound, how does the “growth rescue (activation)” value read?
A: Its value is inactive: 4.27%.

Q: For `Cc1nn(CCCC(=O)NCc2cccc(Cl)c2)c(=O)c2c1sc1ccccc12`, which “growth rescue (activation)” value is on record?
A: Its value is inactive: 19.1%.

Q: Which “growth rescue (activation)” value does the source give for `CCc1ccc2[nH]c(=O)c(CN(CCCN3CCOCC3)C(=O)Nc3cccc(Cl)c3)cc2c1` here?
A: Its value is inactive: 2.13%.

Q: With `COc1ccc(CCNC(=O)CN2CCN(Cc3ccccc3F)C2=O)cc1OC` as the compound, how does the “growth rescue (activation)” value read?
A: The value was inactive: -6.59%.

Q: Which “growth rescue (activation)” value does the source give for `Cn1c(=O)c2c(nc(NCc3ccco3)n2C/C=C/c2ccccc2)n(C)c1=O` here?
A: The value was inactive: 11.8%.

Q: For `COC(=O)c1sccc1NC(=O)/C=C/c1ccc(Cl)cc1Cl`, which “growth rescue (activation)” value is on record?
A: The value was inactive: -12.2%.

Q: For `COc1cc(S(=O)(=O)NCc2ccncc2)c(OC)cc1C`, which “growth rescue (activation)” value is on record?
A: The value was inactive: -0.429%.

Q: For `CCCc1cc(=O)n2[nH]c(NCc3ccc(OC)c(OC)c3)nc2n1`, which “growth rescue (activation)” value is on record?
A: The value was inactive: 3.74%.

Q: With `Cc1nn(CC(=O)NCc2ccc(C(=O)O)cc2)c(C)c1[N+](=O)[O-]` as the compound, how does the “growth rescue (activation)” value read?
A: Its value is inactive: -21.7%.

Q: Which “growth rescue (activation)” value does the source give for `Fc1ccccc1-n1ncc2c1ncn1nc(-c3ccccc3Cl)nc21` here?
A: Its value is inactive: 19.2%.

Q: For `COc1ccc(Cl)cc1S(=O)(=O)NC(C)C(=O)NCCN1CCOCC1` (stereo not drawn), which “growth rescue (activation)” value is on record?
A: Its value is inactive: 5.37%.

Q: For `CCOC(=O)Cn1c(=O)cc(C)c2ccccc21`, which “growth rescue (activation)” value is on record?
A: Its value is inactive: 8.94%.

Q: With `Cc1cc(C)cc(NC(=O)N2C3CCCC2CC(NC(=O)C2CC2)C3)c1` (stereo not drawn) as the compound, how does the “growth rescue (activation)” value read?
A: Its value is inactive: 4.91%.

Q: With `CCOC(=O)c1c(C(=O)OCC)c(C)n(CCc2ccc(OC)c(OC)c2)c1C` as the compound, how does the “growth rescue (activation)” value read?
A: The value was inactive: 9.28%.

Q: With `CSCCC(NC(=O)c1ccc(Cl)cc1Cl)C(=O)OCC(N)=O` (stereo not drawn) as the compound, how does the “growth rescue (activation)” value read?
A: The value was inactive: 7.25%.

Q: For `O=C(Nc1cc(S(=O)(=O)N2CCOCC2)ccc1N1CCCC1)C1CC1`, which “growth rescue (activation)” value is on record?
A: The value was inactive: 8.87%.

Q: For `O=S(=O)(c1ccc2ncn(O)c2c1)N1CCOCC1`, which “growth rescue (activation)” value is on record?
A: Its value is inactive: -17.8%.

Q: With `Cc1ccccc1NC(=O)/C(C#N)=C\c1cn(CC(=O)O)c2ccccc12` as the compound, how does the “growth rescue (activation)” value read?
A: The value was inactive: 3.74%.

Q: For `COc1ccc(NC(=O)COC(=O)Cc2ccsc2)c(OC)c1`, which “growth rescue (activation)” value is on record?
A: The value was inactive: -5.13%.

Q: With `CCOC(=O)/C=C1\SCC(=O)N1CC(=O)Nc1cc(S(=O)(=O)N(C)C)ccc1C` as the compound, how does the “growth rescue (activation)” value read?
A: The value was inactive: 2.2%.

Q: With `COCC(C)NCC(=O)NC(C)CCc1ccccc1` (stereo not drawn) as the compound, how does the “growth rescue (activation)” value read?
A: The value was inactive: -3.81%.

Q: Which “growth rescue (activation)” value does the source give for `CCCCN(C(=O)c1ccc(OC)c([N+](=O)[O-])c1)c1c(N)n(CCC)c(=O)[nH]c1=O` here?
A: The value was inactive: -13%.

Q: With `COc1c(F)c(F)c(C(=O)O)c(Nc2ccc(C)cc2C)c1F` as the compound, how does the “growth rescue (activation)” value read?
A: Its value is inactive: 5.76%.

Q: With `CCN1CCN(CCOc2ccc(Cl)cc2)CC1` as the compound, how does the “growth rescue (activation)” value read?
A: The value was inactive: -3.35%.

Q: For `Clc1ccc2nc(NCc3ccccc3)c3nncn3c2c1`, which “growth rescue (activation)” value is on record?
A: The value was inactive: -2.18%.

Q: Which “growth rescue (activation)” value does the source give for `NC(Cc1ccc(C(F)(F)F)cc1)c1csc(Nc2ncccn2)n1` (stereo not drawn) here?
A: The value was inactive: 8.88%.

Q: Which “growth rescue (activation)” value does the source give for `COc1ccc(N2CC(C(=O)Nc3nc4ccc(S(C)(=O)=O)cc4s3)CC2=O)cc1` (stereo not drawn) here?
A: The value was inactive: -10.4%.

Q: Which “growth rescue (activation)” value does the source give for `COc1ccc(N2C(S)=C(C#N)C(=O)NC2c2ccc(OC)c(OC)c2)cc1` (stereo not drawn) here?
A: The value was inactive: 0.327%.

Q: Which “growth rescue (activation)” value does the source give for `OC(CNCCc1ccc(Cl)cc1Cl)COc1ccccc1` (stereo not drawn) here?
A: The value was inactive: 5.27%.

Q: For `Cc1nc(N2CCN(c3ccccn3)CC2)c2c(C)c(C(=O)Nc3ccccc3F)sc2n1`, which “growth rescue (activation)” value is on record?
A: Its value is inactive: -3.5%.

Q: Which “growth rescue (activation)” value does the source give for `CCc1nc2c(OCc3ccc(Cl)cc3)cccn2c1N(C)C(=O)c1cccs1` here?
A: The value was inactive: 24.7%.

Q: Which “growth rescue (activation)” value does the source give for `CSc1ncccc1C(=O)NC1CCCCCCC1` here?
A: Its value is inactive: -16.9%.
